{"source": "PubChem BioAssay AID504832", "about": "(National Center for Advancing Translational Sciences (NCATS), 2011)", "note": "About 18,000 (5.8%) of roughly 310,000 compounds were called active. The inconclusive results got no clear call from the source; some entries with a clear call stand among them for comparison. Calls follow the shape of the dose curve; as a rule, active = well fitted inhibition curve with a large enough effect; inconclusive = small, poorly fitted or top-dose-only effect, or another doubt; inactive = no such curve, though single readings can be large or run the other way. No potency is given beside an inconclusive call; the fits are too rough. % is scaled to controls: 0 for no effect and ±100 for the full control effect; potency is read from the fitted curve at half-maximal effect; tags tell the direction and shape of the fitted curve."}
{"assay": "Primary qHTS for delayed death inhibitors of the malarial parasite plastid, 48 hour incubation", "conditions": "P. falciparum luciferase growth in erythrocytes; series mostly up to 28.7 µM; activity change, negative = inhibition: at the top concentration", "outline": "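Parasite viability was followed by luminescence of a genomically integrated firefly luciferase. Cultures held 0.1% parasitemia at 2% hematocrit (final), incubated under 5% CO2 at 37 C.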"}
{"smiles": "COc1ccc(NC(=O)c2ccc(CN(c3cc(Cl)ccc3C)S(=O)(=O)c3ccccc3)cc2)cc1OC", "Potency": "inconclusive [inhibitor, single point]"}
{"smiles": "CCc1ccc(N2CC(C(=O)NCCC3=CCCCC3)CC2=O)cc1", "note": "(configuration not stated)", "activity change, negative = inhibition": "inactive: 8.34%"}
{"smiles": "Cc1nc(SCc2ccc(Cl)cc2)ncc1C(=O)O", "activity change, negative = inhibition": "inactive: 12.3%"}
{"smiles": "O=C(Nc1ccc(Br)cc1)C1C2C=CC3(O2)C1C(=O)N(CCN1CCCCC1)C3C(=O)NC1CCCCC1", "note": "(configuration not stated)", "Potency": "inconclusive [inhibitor, partial curve, poor fit]"}
{"smiles": "CC(C)CN(C(=O)COC(=O)c1ccc(Cl)c(N)c1)c1c(N)n(Cc2ccccc2)c(=O)[nH]c1=O", "Potency": "inconclusive [inhibitor, partial curve, poor fit]"}
{"smiles": "COCCNc1nnc(SCC(=O)NNC(=O)c2ccc([N+](=O)[O-])cc2)s1", "Potency": "inconclusive [inhibitor, full curve, poor fit]"}
{"smiles": "COc1ccc(-c2cc(C(=O)NCC3CCCO3)c3cc(C(C)C)ccc3n2)cc1", "note": "(configuration not stated)", "Potency": "inconclusive [inhibitor, partial curve]"}
{"smiles": "O=C(CCCC(=O)OCC(F)(F)C(F)F)Nc1nccs1", "activity change, negative = inhibition": "inactive: 0%"}
{"smiles": "CCOc1cc(/C=C2\\CN(CC)C/C(=C\\c3ccc(O)c(OCC)c3)C2=O)ccc1O", "Potency": "active: 2.08 µM"}
{"smiles": "Cc1ccc(N2CC(C(=O)NCc3ccco3)CC2=O)cc1Cl", "note": "(configuration not stated)", "Potency": "inconclusive [inhibitor, single point]"}
{"smiles": "O=c1[nH]c(C2CCCN(S(=O)(=O)c3ccccc3)C2)nc2c1nnn2Cc1ccc(OC(F)(F)F)cc1", "note": "(configuration not stated)", "Potency": "inconclusive [inhibitor, single point]"}
{"smiles": "O=C(CP(=O)(c1ccccc1)c1ccccc1)Nc1nc2ccc(Cl)cc2s1", "Potency": "inconclusive [inhibitor, single point]"}
{"smiles": "COc1ccc(NC2=C(C(C)=O)C(c3ccc(OC)c(OC)c3)C(C(C)=O)C(C)(O)C2)cc1", "note": "(configuration not stated)", "Potency": "inconclusive [inhibitor, single point]"}
{"smiles": "Cc1ccccc1NC(=O)NC(C)(C)CC(C)(C)C", "Potency": "inconclusive [inhibitor, partial curve, poor fit]"}
{"smiles": "CC(=O)N1c2ccc(S(=O)(=O)N3CCC(C(=O)Nc4cccc(C)c4C)CC3)cc2CC1C", "note": "(configuration not stated)", "Potency": "inconclusive [inhibitor, partial curve, poor fit]"}
{"smiles": "COc1cccc(NC(=O)CN2C(=O)COc3ccc(S(=O)(=O)N4CCC(C)CC4)cc32)c1", "Potency": "inconclusive [inhibitor, single point]"}
{"smiles": "O=C1CCC2(C(=O)O)Sc3ccccc3N12", "note": "(configuration not stated)", "activity change, negative = inhibition": "inactive: 5.83%"}
{"smiles": "COc1ccc(C(=O)NC(=S)Nc2ccccc2N2CCOCC2)cc1[N+](=O)[O-]", "Potency": "inconclusive [inhibitor, single point]"}
{"smiles": "COc1ccccc1N(C)S(=O)(=O)c1ccc(C)c(C(=O)NCc2ccccn2)c1", "Potency": "active: 10.4 µM"}
{"smiles": "C#CC1CCCCC1NC(=O)Nc1cnccc1C(F)(F)F", "note": "(configuration not stated)", "activity change, negative = inhibition": "inactive: -12.6%"}
{"smiles": "Cc1ccccc1-c1nnc(-c2cccs2)o1", "activity change, negative = inhibition": "inactive: 77.9%"}
{"smiles": "OC(c1ccccc1)(c1ccc(F)cc1)C(c1ccccc1)N1CCOCC1", "note": "(configuration not stated)", "activity change, negative = inhibition": "inactive: 37.8%"}
{"smiles": "Cc1cc(C)cc(NC(=O)C[n+]2ccccc2)c1", "activity change, negative = inhibition": "inactive: -0.803%"}
{"smiles": "O=C(COc1ccc(Cl)cc1)Nc1ccc(N2CCN(C(=O)c3ccco3)CC2)cc1", "Potency": "inconclusive [inhibitor, partial curve, poor fit]"}
{"smiles": "O=C(CSCc1c(Cl)cccc1Cl)Nc1ccc2c(c1)OCCO2", "activity change, negative = inhibition": "inactive: 49.4%"}
{"smiles": "CC1(C)Cc2nc3oc4c(NCc5ccccc5)ncnc4c3cc2CO1", "activity change, negative = inhibition": "inactive: -16.9%"}
{"smiles": "CC(C)(C)C(=O)Nc1nnc(SCC(=O)Nc2nccs2)s1", "Potency": "inconclusive [inhibitor, partial curve, poor fit]"}
{"smiles": "COc1ccc([C@H]2CC(=O)C=C(c3cccc4c3Oc3ccccc3S4)C2)cc1OC", "Potency": "inconclusive [inhibitor, partial curve]"}
{"smiles": "CC(=O)c1cccc(NC(=O)C2CCN(S(=O)(=O)c3ccc(C)cc3)CC2)c1", "activity change, negative = inhibition": "inactive: -5.65%"}
{"smiles": "CCOC(=O)CNC(=O)c1ccc(OCC(F)(F)F)cc1", "activity change, negative = inhibition": "inactive: 292%"}
{"smiles": "O=C(NC1CC1)C1=C[C@H](c2csc3ccccc23)C[C@H](OCc2ccc(CO)cc2)O1", "Potency": "inconclusive [inhibitor, single point]"}
{"smiles": "CCOCC(=O)Nc1ccc2c(c1)N(S(=O)(=O)c1cccs1)CCC2", "Potency": "inconclusive [inhibitor, partial curve, poor fit]"}
{"smiles": "COc1ccccc1OC[C@H](O)COC(N)=O", "activity change, negative = inhibition": "inactive: 2.22% [at 12.8 µM]"}
{"smiles": "CCc1cccc(CC)c1NC(=O)c1ccccc1CCc1ccccc1", "Potency": "active: 14.7 µM"}
{"smiles": "CN(CC1CCCN(CCc2ccc(F)cc2)C1)C(=O)CCC(N)=O", "note": "(configuration not stated)", "Potency": "inconclusive [inhibitor, partial curve, poor fit]"}
{"smiles": "Cc1c2cnn(CC(=O)NCCCN3CC(C)CC(C)C3)c(=O)c2c(C)n1Cc1ccc(Cl)cc1", "note": "(configuration not stated)", "Potency": "inconclusive [inhibitor, partial curve]"}
{"smiles": "Nc1nonc1-n1nnc(C(=O)N/N=C/c2ccccc2Cl)c1-c1ccc2c(c1)OCO2", "Potency": "active: 2.94 µM"}
{"smiles": "COc1ccc(N(CC(=O)Nc2ccc(C)c(C)c2)S(=O)(=O)c2c(C)n[nH]c2C)cc1", "Potency": "inconclusive [inhibitor, single point]"}
{"smiles": "O=C(NCC1CCCO1)C(=Cc1cccc([N+](=O)[O-])c1)C(=O)NCC1CCCO1", "note": "(configuration not stated)", "Potency": "inconclusive [inhibitor, single point]"}
{"smiles": "CCOC(=O)c1c(C)[nH]c(C(=O)OCC(=O)Nc2ccc(OCC)cc2)c1C", "activity change, negative = inhibition": "inactive: 37%"}
{"smiles": "Oc1ccc(Br)cc1/C=N/n1c(C2CCCCC2)n[nH]c1=S", "Potency": "inconclusive [inhibitor, full curve, poor fit]"}
{"smiles": "C[C@H]1CN=C(Nc2ccccc2)N1CCCC1CCCCC1", "activity change, negative = inhibition": "inactive: -4.35%"}
{"smiles": "Cc1cc(C)c(C#N)c(SCC(=O)N(CCC#N)c2ccc3c(c2)OCCO3)n1", "Potency": "inconclusive [inhibitor, single point]"}
{"smiles": "CCOC(=O)c1sc(NC(=O)CNCc2cccnc2)c(C(=O)OCC)c1C", "Potency": "inconclusive [inhibitor, single point]"}
{"smiles": "Cc1ccc(C(=O)OCC(=O)NN2C(=O)NC3(CCC(C)CC3)C2=O)cc1", "note": "(configuration not stated)", "Potency": "inconclusive [inhibitor, single point]"}
{"smiles": "CS(=O)(=O)Nc1ccc(C(=O)Nc2ccc3ccccc3c2)cc1", "activity change, negative = inhibition": "inactive: 115%"}
{"smiles": "CC(C)C1OC(c2cccc(NC(=O)c3cccs3)c2)OCC1(C)C", "note": "(configuration not stated)", "Potency": "active: 1.85 µM"}
{"smiles": "CCCN(C(=O)COC(=O)CNC(=O)c1ccc2ccccc2c1)c1c(N)n(Cc2ccccc2)c(=O)[nH]c1=O", "activity change, negative = inhibition": "inactive: 27.7%"}
{"smiles": "COc1ccc2[nH]c(=O)c(CN(C)C(=O)c3cccs3)cc2c1", "activity change, negative = inhibition": "inactive: 6%"}
{"smiles": "COc1cccc(NC(=O)COC(=O)C2CC(=O)N(c3ccc(C)cc3)C2)c1", "note": "(configuration not stated)", "activity change, negative = inhibition": "inactive: 34.4%"}
{"smiles": "COCCN1Cc2cc3cc(C)ccc3nc2SC1=Nc1cccc(OC)c1", "Potency": "active: 14.7 µM"}
{"smiles": "CCOC(=O)N1CCC(N2Cc3cccc(C(=O)N4CC(C)CC(C)C4)c3C2=O)CC1", "note": "(configuration not stated)", "Potency": "inconclusive [inhibitor, partial curve]"}
{"smiles": "COc1ccc(C(=O)NC2CCN(CC(=O)NCc3ccccc3)CC2)cc1", "activity change, negative = inhibition": "inactive: 18.9%"}
{"smiles": "CCN(CC)S(=O)(=O)c1ccc2[nH]c(=O)cc(C(=O)Nc3ccc(C)c(S(=O)(=O)N(CC)CC)c3)c2c1", "Potency": "inconclusive [inhibitor, single point]"}
{"smiles": "Cc1ccc(S(=O)(=O)/N=C2\\C=C(Nc3cccc(C(=O)O)c3)C(=O)c3ccccc32)cc1", "Potency": "active: 4.65 µM"}
{"smiles": "COc1cccc(C(C(=O)NC(C)(C)C)N(CCc2ccccc2)C(=O)CCC(=O)Nc2cc(C)on2)c1OC", "note": "(configuration not stated)", "Potency": "inconclusive [inhibitor, partial curve, poor fit]"}
{"smiles": "O=C(COC(=O)c1cccc(-n2cnnn2)c1)Nc1c(Cl)cccc1C(F)(F)F", "Potency": "inconclusive [inhibitor, partial curve, poor fit]"}
{"smiles": "CC1=CC(c2ccc(Cl)cc2)n2nc(NC(=O)CCC(=O)O)nc2N1", "note": "(configuration not stated)", "activity change, negative = inhibition": "inactive: 23.3%"}
{"smiles": "CC(=C/c1ccccc1)/C=N/n1c(C)n[nH]c1=S", "activity change, negative = inhibition": "inactive: 9.55%"}
{"smiles": "CC(=O)Oc1c(-c2ccco2)oc2ccccc2c1=O", "activity change, negative = inhibition": "inactive: 8.79%"}
{"smiles": "COc1ccccc1NC(=O)Cn1cc(C(=O)C(=O)N2CCOCC2)c2ccccc21", "activity change, negative = inhibition": "inactive: -14.4%"}
{"smiles": "CCOC(=O)N1CCC(N(CCN(C)C)C(=S)Nc2cccc(C)c2)CC1", "activity change, negative = inhibition": "inactive: 14.8%"}
{"smiles": "Cc1nc(C(=O)NC2CCOCC2)sc1C1(C)CC(c2ccccc2)=NO1", "note": "(configuration not stated)", "activity change, negative = inhibition": "inactive: 40.1%"}
{"smiles": "O=C(N/N=C/c1ccc(OCc2ccccc2)cc1)c1ccc(O)cc1", "Potency": "inconclusive [inhibitor, partial curve, poor fit]"}
{"smiles": "Cc1ccc(Sc2cc(N3CCOCC3)nc(-c3ccccc3)n2)cc1", "Potency": "inconclusive [inhibitor, partial curve, poor fit]"}
{"smiles": "CCN1CCN(c2cc(SC(C)C)nc(-c3ccc(OC)cc3)n2)CC1", "Potency": "inconclusive [inhibitor, partial curve]"}
{"smiles": "O=C(N/N=C/c1ccccc1)c1ccco1", "activity change, negative = inhibition": "inactive: 75.9%"}
{"smiles": "COc1ccccc1CNC(=O)COC(=O)/C=C/c1cccs1", "activity change, negative = inhibition": "inactive: -13.6%"}
{"smiles": "Fc1ccccc1Cn1nnc2c(-n3ccnc3)ncnc21", "Potency": "inconclusive [inhibitor, partial curve, poor fit]"}
{"smiles": "Cc1ccc(NC2=CC(=O)C(=O)c3ccccc32)cc1", "Potency": "active: 0.522 µM"}
{"smiles": "NC(=O)[C@H]1CC2(CC(c3cccc(NC(=O)COc4ccc(Cl)cc4)c3)=NO2)CN1C(=O)c1ccccc1C(=O)c1ccccc1", "note": "(some centres not stated)", "Potency": "active: 11.7 µM"}
{"smiles": "COC(=O)c1c(NS(=O)(=O)c2cccs2)sc2c1CCCC2", "activity change, negative = inhibition": "inactive: 1.84%"}
